The campaign covered roughly 340,000 compounds. About 120 (0.035%) were called active. Inconclusive means that the source gave no clear call. Such entries were picked first, then a sample of the others.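 The calls were made as follows: active = mean replicate inhibition at least 50% and at least half of replicates individually reaching 50%; inconclusive = only one of the two criteria met; inactive = neither criterion met.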
test: E. coli Tat export inhibitors, primary screen, MC4100, TorA-mCherry reporter, fluorescence, single point (AID 488895); details: at 10 µM, hits give high values;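 also: exported cargo escapes ClpAP degradation while cytoplasmic cargo is degraded and loses fluorescence; 0% = median of neutral control wells and 100% = median of NaSCN control wells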

Row | SMILES | inhibition
1 | O=C(O)/C=C/C(=O)Nc1cc(F)ccc1F | inactive: 1.95%
2 | CC(C)(C)C(=O)O/N=C(\N)c1ccc([N+](=O)[O-])s1 | inactive: -1.7%
3 | Cc1ccc(NC(=O)CN2CCN(c3ccccn3)CC2)c(Cl)c1 | inconclusive: 31.7%
4 | CC1=NCC(C)c2c1[nH]c1ccccc21 (stereo unspecified) | inconclusive: 31.7%
5 | CCN1CCCC1CNC(=O)C(=O)NC(C)C (stereo unspecified) | inconclusive: 39.8%
6 | Cc1cccc(CS(=O)(=O)c2ncc(Cl)c(C(=O)Nc3ccc(F)cc3)n2)c1 | inconclusive: 34.6%
7 | CCCCCCCCCCn1c2c(c(=N)c3c1CCC3)CCC2 | inactive: 0.784%
8 | Cc1ccc(Cn2nc(C)c(NC(=O)c3cc(C)no3)c2C)cc1 | inconclusive: 26.1%
9 | CC(C)(C)n1nnnc1C(c1cc2cc3c(cc2[nH]c1=O)OCCO3)N1CCSCC1 (stereo unspecified) | inconclusive: 31%
10 | Oc1ccc(N=Nc2ccccc2-c2nn[nH]n2)c(O)c1 | inactive: -3.43%
11 | O=C(Cn1ccc(C(F)(F)F)n1)Nc1ccc(S(=O)(=O)NCc2ccco2)cc1 | inconclusive: 27.4%
12 | O=C(Nc1ccc(-c2nc3ncccc3o2)cc1)c1ccco1 | inconclusive: 28.2%
13 | Cc1ccc(C(=O)Nc2nc(C)c(C(=O)Nc3ccc4c(c3)CCC4)s2)cc1 | inconclusive: 40.4%
14 | CCn1nc(C)c(NC(=O)CSc2nnc(-c3ccco3)n2C)c1C | inconclusive: 18.1%
15 | O=C1CSC(=S)N1/N=C/c1ccc2c(c1)OCCO2 | inactive: 7.03%
16 | O=C(Cn1cnc2ccccc21)Nc1ccc2c(c1)OCCCO2 | inactive: -6.81%
17 | CNC1=CC(=O)CC(c2ccccc2)C1 (stereo unspecified) | inconclusive: 31.8%
18 | Cc1ccc(S(=O)(=O)Nc2c(C)n(C)n(-c3ccccc3)c2=O)cc1C(=O)NCc1ccco1 | inconclusive: 25.4%
19 | O=C(Nc1ccc(N2CCCC2)c(Cl)c1)c1ccc([N+](=O)[O-])o1 | inactive: -21.8%
20 | O=c1[nH]sc2ccccc12 | inactive: -0.832%
21 | Cc1ccc(NC(=O)COC(=O)CCC(=O)c2cccs2)c(C)c1 | inconclusive: 27.4%
22 | CCCc1c(O)nc(SC2CC(=O)N(c3ccc(OC)cc3)C2=O)[nH]c1=O (stereo unspecified) | inconclusive: 35.3%

Row | SMILES | inhibition
23 | CC(=NN1CC(=O)NC1=O)c1ccc([N+](=O)[O-])o1 | inactive: 2.98%
24 | CCN(CC)S(=O)(=O)N1CCC(C(=O)NC2CCCC2)CC1 | inconclusive: 31.9%
25 | Cc1nn2c(COc3ccc(NC(=O)c4ccccc4Cl)cc3)nnc2c2ccccc12 | inconclusive: 20.8%
26 | C/C(=N\Nc1ncnc2sc(C)c(C)c12)c1ccccn1 | inactive: 20.2%
27 | CCCCCCCCCCCCCCCC(=O)OC(CC(=O)O)C[N+](C)(C)C (stereo unspecified) | active: 53.9%
28 | COc1ccc(C(CNC(=O)c2cc(SC)ccc2Cl)N(C)C)cc1 (stereo unspecified) | inconclusive: 33.1%
29 | CCOC(=O)C1=C(C)NC(=S)NC1c1cc(C)sc1C (stereo unspecified) | inconclusive: 37.1%
30 | N#C/C(=C\c1ccc(N2CCCCC2)c([N+](=O)[O-])c1)c1nn(-c2ccccc2)c(N)c1C#N | inconclusive: 27.7%
31 | Cc1cc(Cl)ccc1NC(=O)CN1CCCC1 | inconclusive: 26.7%
32 | CC1CCN(CCCCOc2cccc(C(C)C)c2)CC1 | inactive: -5.01%
33 | O=C(Nc1ccc2[nH]ncc2c1)c1ccc(F)cc1 | inactive: -1.81%
34 | CCOC(=O)c1ccccc1NC(=S)N1CC(C)CC(C)C1 (stereo unspecified) | inconclusive: 26.2%
35 | CC1CCc2c(N3CCC(O)CC3)c(F)cc3c(=O)c(C(=O)O)cn1c23 (stereo unspecified) | active: 59.8%
36 | CCOc1ccc(-c2cn(-c3ccc(OC)cc3)c(SC)n2)cc1 | inconclusive: 29.2%
37 | CCOc1ccc2nc(SCC(=O)Nc3nonc3C)[nH]c2c1 | inconclusive: 27.4%
38 | CSc1ncccc1C(=O)OCC(=O)N(C)c1c(N)n(Cc2ccccc2)c(=O)[nH]c1=O | inconclusive: 49.7%
39 | O=C(CN1C(=O)c2ccccc2C1=O)Nc1ccccc1 | inactive: 4.74%
40 | CCCCCCCCCCC[N+](C)(C)CC/C=C1/c2ccccc2Sc2ccc(Cl)cc21 | inconclusive: 36.1%
41 | CCOC(=O)N1CCN(c2c(NCCCN3CCCCCC3)c(=O)c2=O)CC1 | inactive: -2.46%
42 | CC1CCC(NC(=O)c2ccc(CNc3c(NC4CCCCC4)c(=O)c3=O)cc2)CC1 (stereo unspecified) | inconclusive: 29.1%
43 | COc1ccccc1OCCNC(=O)C1CCN(C(C)=O)CC1 | inconclusive: 26%
44 | CCCC(=O)Nc1ccc(NC(=O)c2ccccn2)cn1 | inconclusive: 39.6%

Row | SMILES | inhibition
45 | CC(=O)c1cccc(N=c2scc(-c3ccc(S(=O)(=O)N4CCOCC4)cc3)n2CCO)c1 | inactive: -3.2%
46 | CCCCCCc1ccc(N2C[C@H](Cc3ccccc3)[C@@H](CC(=O)NCc3ccc(OC)cc3)C2=O)cc1 | inconclusive: 27.4%
47 | CC(C)c1nn2c(=O)cc(CSc3ccccc3NC(=O)c3ccccc3F)nc2s1 | inconclusive: 38.8%
48 | CC(=O)Nc1ccc2nc(NC(=O)c3ccc([N+](=O)[O-])o3)sc2c1 | inactive: -12.1%
49 | O=C(CN(Cc1ccccc1Cl)C(=O)CNS(=O)(=O)c1ccc(F)cc1)NCC1CCCO1 (stereo unspecified) | active: 52.7%
50 | COc1ccc(NC(=O)Nc2cccc3ccccc23)c(OC)c1 | inactive: -16.9%
51 | CCn1nc(C)cc1-c1nnc(Sc2ncc([N+](=O)[O-])s2)n1C | inactive: 12.2%
52 | c1ccc(-n2c(SCC3CCCCO3)nnc2-c2cccs2)cc1 (stereo unspecified) | inconclusive: 29.9%
53 | CC1CCN(S(=O)(=O)c2nnc(NC(=O)c3cccc(Cl)c3)s2)CC1 | inconclusive: 27.4%
54 | O=C(Cn1nnc(-c2ccccc2)n1)c1ccccc1 | inactive: 2.78%
55 | C#CCOCCOCCOCCNc1nc(N2CCN(C(=O)CCCCCCCCCCNC(=O)[C@@H](CCC(=O)O)n3cc(CCCCCN)nn3)CC2)nc(N2CCN(C(=O)CCCCCCCCCCNC(=O)[C@H](CCCCN)n3cc(C[C@@H](C)CC)nn3)CC2)n1 | inconclusive: 47.7%
56 | COc1ccc(C2=CC(=O)C[C@H](c3ccc(Cl)cc3)C2)cc1 | inactive: 11.8%
57 | O=[N+]([O-])c1cccc(N(CC(O)CN2CCCCC2)S(=O)(=O)c2ccccc2)c1 (stereo unspecified) | inconclusive: 19.2%
58 | COC(=O)c1cc(C(=O)Nc2cc(C)ccn2)cc([N+](=O)[O-])c1 | inconclusive: 34.6%
59 | O=[N+]([O-])c1cccc(COc2cccc(CN3CCCCC3)c2)c1 | inconclusive: 25.1%
60 | COc1cccc(CN2CC(C(=O)NCCOc3cccnc3)CCC2=O)c1 (stereo unspecified) | inconclusive: 21.4%
61 | O=C(c1cccc(C(=O)N2CCN(c3ccccc3F)CC2)c1)N1CCN(c2ccccc2F)CC1 | inactive: 1.15%
62 | Cc1ccc(S(=O)(=O)c2ccc(NN)cc2)cc1 | inconclusive: 20.7%
63 | O=C(CSC1=NCCS1)c1ccc(Cl)cc1 | inconclusive: 46.5%
64 | O=C(CN1C(=O)c2cccc3cccc1c23)Nc1ccc(S(=O)(=O)Nc2nccs2)cc1 | inactive: -0.706%
65 | Clc1ccccc1-c1ccc2ncnc(NCc3cccnc3)c2c1 | inconclusive: 29.3%
66 | COc1c(F)c(F)cc2c(=O)c(C(=O)O)cn(C3CC3)c12 | active: 67.6%

Row | SMILES | inhibition
67 | CC[C@H]1OC(=O)[C@H](C)[C@@H](O[C@H]2C[C@@](C)(OC)[C@@H](O)[C@H](C)O2)[C@H](C)[C@@H](O[C@@H]2O[C@H](C)C[C@H](N(C)C)[C@H]2O)[C@](C)(OC)C[C@@H](C)C(=O)[C@H](C)[C@@H](O)[C@]1(C)O | active: 58.4%
68 | CCn1c(CCn2c3ccccc3c3ccccc32)n[nH]c1=S | active: 50.3%
69 | COc1ccccc1N1CCN(c2nc(-c3ccccc3)cc(C(F)(F)F)n2)CC1 | inconclusive: 35%
70 | COc1ccc(Cl)cc1C(=O)NCCN(C)C | inconclusive: 24.6%
71 | Cc1nn2c(SCC(=O)c3cccs3)cc(C(C)(C)C)nc2c1-c1ccccc1 | inconclusive: 32.5%
72 | CCOc1ccc(NC(=O)c2cccc(OC(=S)N3CCC(C)CC3)c2)cc1 | inconclusive: 20.4%
73 | CC(Sc1nc2ccccc2c(=O)n1C)C(=O)NC1CCCCC1C (stereo unspecified) | inconclusive: 25.8%
74 | O=C(NCCc1ccco1)c1cc(COc2cccc(C(F)(F)F)c2)on1 | inactive: 8.34%
75 | Cc1ccc(S(=O)(=O)N2CCOCC2)cc1C(=O)N1CCc2ccccc21 | inactive: 3.55%
76 | Cc1ccc2nc(NNC(=O)c3ccc(S(=O)(=O)N4CCc5ccccc5C4)cc3)sc2c1 | inconclusive: 28.1%
77 | CCCCN1CC(COCc2ccccc2)Oc2cccc(N3CCCC3)c2S1(=O)=O (stereo unspecified) | inconclusive: 33.4%
78 | CCOc1ccc(NC(=O)CN2C(=O)/C(=C3\SC(=S)N(C4CCS(=O)(=O)C4)C3=O)c3ccccc32)cc1 (stereo unspecified) | inconclusive: 24.4%
79 | COc1ccccc1NC(=S)NN=C(C)c1ccccn1 | inactive: 8.05%
80 | CCOC(=O)c1c(C)[nH]c(C(=O)N(C)Cc2cccc(OC)c2OC)c1C | inconclusive: 32.8%
81 | O=C(Nc1ccc(F)cc1)Nc1cc(S(=O)(=O)N2CCOCC2)ccc1N1CCCC1 | inconclusive: 24.3%
82 | Cc1cc(C)c(C(N)=O)c(Nc2ccc3c(c2)OCCO3)n1 | inconclusive: 29%
83 | CCN(CC)CCCn1c(C)cc2c(c1=O)C(c1cccc(Cl)c1)C(C#N)=C(N)O2 (stereo unspecified) | inconclusive: 27.9%
84 | O=C(CC(=O)c1cc(Cl)ccc1O)c1ccccc1 | inactive: -13.9%
85 | CCCCN(C)C(=O)c1cc2cc([N+](=O)[O-])cc(OC)c2oc1=O | inconclusive: 27.7%
86 | Cc1cccc(CNC(=O)C2CCCN(c3nn4c(=O)cc(C)nc4s3)C2)c1 (stereo unspecified) | inconclusive: 22.4%
